Measurements: PubChem BioAssay AID624296 (National Center for Advancing Translational Sciences (NCATS), 2012)
The whole screen tested about 350,000 compounds, of which about 9,900 (2.8%) were called active. The inconclusive results got no clear call from the source; some entries with a clear call stand among them for comparison. Calls follow the shape of the dose curve; as a rule, active = well fitted activation curve with a large enough effect; inconclusive = small, poorly fitted or top-dose-only effect; inactive = no such curve, though single readings can be large or run the other way. No potency is given beside an inconclusive call; the fits are too rough.

Assay: A quantitative high throughput screen for small molecules that induce DNA re-replication in MCF 10a normal breast cells. Also: nearly all actives have a fitted effect of over 50% in size. As to activity, positive = re-replication: % of control where 0% means no effect.
Conditions: MCF 10A DNA re-replication, Hoechst nuclear intensity, 48 h; activity, positive = re-replication: at 46.1 µM (top of the series)
Potency is read from the fitted curve at half-maximal effect; tags tell the direction and shape of the fitted curve.

| SMILES | Potency | activity, positive = re-replication |
| --- | --- | --- |
| O=C(Nc1cccc2ccccc12)c1nn(C23CC4CC(CC(C4)C2)C3)cc1Br | inconclusive [activator, partial curve] |  |
| COc1cc(OC)c(OC)cc1CN1CCN(C(=O)COc2ccc3ccccc3c2)CC1 | inconclusive [activator, partial curve, poor fit] |  |
| Oc1ccc(O)c2c1C1(Cl)C(Cl)=C(Cl)C2(Cl)C1(Cl)Cl | active: 16.4 µM |  |
| c1ccc(-c2ccc(-c3n(-c4ccccn4)c4ccccc4[n+]3-c3ccccn3)cc2)cc1 | inconclusive [activator, single point] |  |
| O=C1C=Cc2ccccc2C1=O | inconclusive [activator, single point] |  |
| CC(N)C(=O)OC(C)(C)Cc1ccc(Cl)cc1 (stereo not drawn) | inconclusive [activator, full curve, poor fit] |  |
| COC(=O)C1=C(c2ccc(F)cc2OCc2ccccc2)C[C@@H]2CC[C@H]1N2C(=O)NCc1cccc(C(F)(F)F)c1 | active: 3.26 µM |  |
| N#Cc1ncc(N=Cc2ccc(N(CCCl)CCCl)cc2)s1 | active: 20.6 µM |  |
| Cc1nn(Cc2ccccc2Cl)c(Cl)c1C(=O)OCC(=O)NC(=O)NC1CCCCC1 | inconclusive [activator, partial curve, poor fit] |  |
| CC(C)c1ccc(N2C(=O)NC(=O)/C(=C\c3cnc(-c4ccccc4)nc3)C2=O)cc1 | inactive |  |
| CN(C)Cc1ccccc1OC(=O)N(C)C | inactive |  |
| COC(=O)C1=C(c2ccc(Cl)c(C(F)(F)F)c2)C[C@@H]2CC[C@H]1N2C(=O)N1CCCC1 | inconclusive [activator, partial curve, poor fit] |  |
| O=C(Nc1ccccc1)C1=C[C@H](c2ccccc2)C[C@H](OCCCCO)O1 | active: 18.4 µM |  |
| Cc1ccc(/C=C2/Sc3ccc(C(=O)N4CCC5(CC4)OCCO5)cc3NC2=O)cc1 | inconclusive [activator, single point] |  |
| CC[C@H]1CN2CCC1C[C@@H]2[C@H](O)c1ccnc2ccc(OC)cc12 (stereo partly drawn) | inactive |  |
| CN1C(=O)[C@@H](NC(=O)c2cc3ccccc3[nH]2)N=C(c2ccccc2)c2ccccc21 | inactive |  |
| O=C1NC(=O)N(Cc2ccco2)C(=O)/C1=C/C=C/c1ccco1 | active: 18.4 µM |  |
| CC(C)c1ccc(C(O)P(=O)(OCc2ccccc2)c2ccc(N(C)C)cc2)cc1 (stereo not drawn) | inconclusive [activator, single point] |  |
| CC/C=C/CC(=O)N[C@@H](c1ccccc1)[C@@H](O)C(=O)O[C@H]1C[C@@]2(O)[C@@H](OC(=O)c3ccccc3)C3[C@](C)(C(=O)[C@H](OC(C)=O)C(=C1C)C2(C)C)[C@@H](O)C[C@H]1OC[C@@]31OC(C)=O (stereo partly drawn) |  | inconclusive: 56.3% [activator] |
| Clc1ccc(CC[C@H](Cn2ccnc2)Sc2c(Cl)cccc2Cl)cc1 | inactive |  |
| Cc1ccc(N2C(=O)NC(=O)C3(Cc4ccccc4N4CCN(c5ccccc5)CC43)C2=O)cc1 (stereo not drawn) | inconclusive [activator, partial curve, poor fit] |  |
| COC(=O)C1=C(c2ccc(Cl)c(C(F)(F)F)c2)C[C@@H]2CC[C@H]1N2C(=O)NC1CCCCC1 | inconclusive [activator, single point] |  |

| SMILES | Potency | activity, positive = re-replication |
| --- | --- | --- |
| C[N+]1([O-])[C@@H]2CC[C@H]1CC(OC(=O)[C@@H](CO)c1ccccc1)C2 (stereo partly drawn) | inactive |  |
| CN1CCc2cc3c(c4c2C1Cc1ccccc1-4)OCO3 (stereo not drawn) | inconclusive [activator, single point] |  |
| Cc1ccc(C)c(-c2nnc(NC(=O)C3=COCCO3)o2)c1 | inconclusive [activator, single point] |  |
| CCS(=O)(=O)C(C)(C)S(=O)(=O)CC | inactive |  |
| O=c1c2ccccc2nc(/C=C/c2ccc(O)cc2)n1-c1ccc(O)cc1 | active: 23.1 µM |  |
| COc1cc(C2c3cc(O)c(OC)cc3CC3C(=O)OCC32)ccc1O (stereo not drawn) | inactive |  |
| c1ccc(CCCN2CCN(CCOC(c3ccccc3)c3ccccc3)CC2)cc1 | active: 5.17 µM |  |
| COC(=O)[C@H]1[C@H]2C[C@@H]3c4[nH]c5cc(OC)ccc5c4CCN3C[C@H]2C[C@@H](OC(=O)/C=C/c2cc(OC)c(OC)c(OC)c2)[C@@H]1OC | active: 5.8 µM |  |
| C=CCn1c(O)c(C(C)=Nc2ccc(N(CC)CC)cc2)c(=O)[nH]c1=O | inconclusive [activator, full curve, poor fit] |  |
| O=C(O)C1C2CCC(O2)C1C(=O)Nc1ccc(F)c(F)c1 (stereo not drawn) | inconclusive [activator, single point] |  |
| COC(=O)C1=C(c2ccccc2)C[C@@H]2CC[C@H]1N2C(=O)N1CCCCC1 | inconclusive [activator, full curve, poor fit] |  |
| CCOC(=O)c1ccc2c(c1)N(CC)C(=O)c1ccccc1S2 | inconclusive [activator, single point] |  |
| C[C@]12CCC(=O)C=C1CC[C@@H]1[C@@H]2CC[C@@]2(C)[C@H]1CC[C@]2(C)O | inconclusive [activator, full curve, poor fit] |  |
| CSc1cc(-c2ccccc2)n(Cc2c(Cl)cccc2Cl)c(=O)c1C#N | inconclusive [activator, full curve] |  |
| C#CCNc1ccncc1S(=O)(=O)NC(=O)NC(C)C | inactive |  |
| CC(C)NCC(O)c1ccc(N)c(C#N)c1 (stereo not drawn) | inactive |  |
| COc1ccc2[nH]c(C)c(CCNCc3cc(OC)c4c(c3)OCO4)c2c1 | inconclusive [activator, partial curve, poor fit] |  |
| CN1CCc2c(C#N)c(Cl)nc(Cl)c2C1 | inconclusive [activator, partial curve, poor fit] |  |
| Cc1cccc(NC(N)=S)c1 | inactive |  |
| COc1ccccc1N1CCN(Cc2ccc(F)cc2)CC1 | inactive |  |
| Cc1nc(-c2nc(-c3c(C(=O)NNC(=O)c4ccc(Cl)cc4)noc3C)cs2)cs1 | inconclusive [activator, partial curve, poor fit] |  |
